In PubChem BioAssay AID686971 (National Center for Advancing Translational Sciences (NCATS), 2013):
The campaign covered roughly 360,000 compounds. About 7,500 (2.1%) were called active. Inconclusive results, whose numbers are uncertain, are shown with a selection of clear calls. Calls follow the shape of the dose curve; as a rule, active = well fitted cell-killing curve with a large enough effect; inconclusive = small, poorly fitted or top-dose-only effect, or effect the other way, or another doubt; inactive = no such curve, though single readings can be large or run the other way. No potency is given beside an inconclusive call; the fits are too rough.

assay: qHTS for induction of synthetic lethality in tumor cells producing 2HG: qHTS for the HT-1080-IDH1KD cell line; settings: HT-1080 IDH1 knockdown viability, ATP luminescence, 48 h; activity, negative = toxicity: at 46.1 µM (top of the series) unless noted;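 as to activity, negative = toxicity: 0% = DMSO wells and -100% = cell-free medium wells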
Outline: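 Cytotoxicity counter-line: IDH1KD HT-1080, 48 h, CellTiter-Glo. Curves classed by r2, magnitude and activity.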
Potency is read from the fitted curve at half-maximal effect; tags tell the direction and shape of the fitted curve.

Row | SMILES | activity, negative = toxicity | Potency
1 | COc1cccc(-c2cc(C(=O)N3CCN(S(=O)(=O)c4ccc(Br)cc4)CC3)[nH]n2)c1 | inactive: -1.04% | 
2 | N#CC1=C2SCC(O)(c3ccccc3)N2C(=O)CC1c1ccccc1F (stereo not drawn) |  | active: 16.4 µM
3 | O=C(CSc1nnc(-c2cc3ccccc3cc2O)n1Cc1ccco1)N1CCc2ccccc2C1 |  | inconclusive [cytotoxic, partial curve]
4 | O=C1CN(C(=O)c2cccc(Br)c2)c2ccccc2N1 |  | inconclusive [cytotoxic, single point]
5 | Cc1nc2ccccc2c(C)c1CC(=O)OC(C)C(=O)NC1(C#N)CCCCC1 (stereo not drawn) | inactive: 6.11% | 
6 | CC(C)Cn1c2c(c(O)c(C(=O)Nc3ncccc3O)c1=O)CCCC2 |  | inconclusive [cytotoxic, single point]
7 | CN(C)c1ccc(CC(=O)N2CCCC(c3cc(C(=O)Nc4ccc(C(C)(C)C)cc4)no3)C2)cc1 (stereo not drawn) |  | active: 10.3 µM
8 | Nn1cnnc1N/N=C/c1ccc(F)cc1 |  | inconclusive [cytotoxic, single point]
9 | CCOc1ccc(NC(=O)CN(C)c2ccc(S(=O)(=O)N(C(C)C)C(C)C)cn2)cc1OCC |  | inconclusive [cytotoxic, partial curve]
10 | O=C1NN=C(c2ccc(Br)cc2)CC1c1ccc(Cl)cc1 (stereo not drawn) | inactive: -13.7% | 
11 | Nc1ncnc(Nc2ccccc2)n1 | inactive: 4.41% | 
12 | O=S(=O)(NCCNc1ncc(C(F)(F)F)cc1Cl)C(F)(F)F |  | inconclusive [cytotoxic, partial curve]
13 | CCc1nc2c(OCCC3CCCCC3)cccn2c1N(C)C(=O)c1ccco1 |  | inconclusive [cytotoxic, single point]
14 | Cc1ccc(S(=O)(=O)ON2C(=O)c3cccc4cccc(c34)C2=O)cc1 | inactive: 0.125% | 
15 | O=C(Cc1ccccc1)Nc1ccccc1C(=O)NCC1CCCO1 (stereo not drawn) |  | inconclusive [rising, single point]
16 | CC(C)N1CCC(C)(C(=O)Nc2cccc3c2CCCC3)C1 (stereo not drawn) | inactive: 21.7% | 
17 | O=C1/C(=C\c2ccccc2Cl)SC(=S)N1CCC(=O)N1CCCc2ccccc21 |  | inconclusive [cytotoxic, single point]
18 | COc1cc(-c2cc(OC)c(O)c(OC)c2)cc(OC)c1O |  | inconclusive [cytotoxic, single point]
19 | Cc1cccc(NC(=S)NC2CCCCC2)n1 | inactive: -20.5% | 
20 | Cc1ccc2nc(-c3ccc(SCC(=O)Nc4nc(C)cs4)nc3)[nH]c2c1 | inactive: -26.7% | 
21 | O=C(COC(=O)c1nc(Cl)c(Cl)c(Cl)c1Cl)NCc1ccccc1 |  | inconclusive [cytotoxic, single point]
22 | Cc1cccc(C2=NN(c3ccc(Br)cc3)[C@@H](C(=O)N3CCOC3=O)[C@@H]2c2ccc([N+](=O)[O-])cc2)c1 | inactive: -21.2% | 
23 | O=C(NCc1ccco1)C1CC(=O)N(c2ccc(O)cc2)C1 (stereo not drawn) | inactive: 11.5% | 
24 | Cc1noc(C)c1COc1ccccc1C(=O)N1CCN(c2cccc(Cl)c2)CC1 |  | active: 23.1 µM
25 | COc1ccc(S(=O)(=O)Nc2cc3c4c(oc3c3ccccc23)CC(C)(C)CC4=O)cc1 |  | inconclusive [cytotoxic, single point]

Row | SMILES | activity, negative = toxicity | Potency
26 | CC(C)N1CCN(Cc2ccc(-c3ccccc3)cc2)CC1CCO (stereo not drawn) |  | inconclusive [cytotoxic, single point]
27 | CCC1Oc2ccc(C)cc2N(CC(=O)N(Cc2cccnc2)Cc2cccc(F)c2)C1=O (stereo not drawn) | inactive: -9.61% | 
28 | Cc1ccc(-c2ccc(CN3C(CC(C)C)C(=O)N(Cc4cn(CC5CCCCC5)nn4)CCS3(=O)=O)cc2)cc1 (stereo not drawn) |  | inconclusive [cytotoxic, single point]
29 | CCOc1ccc(C(=O)c2ccc(OCC)c(N)c2)cc1N | inactive: -18.5% | 
30 | CC(=O)c1c(C)nn(CC(O)COc2ccc3c(c2)CCC3)c1C (stereo not drawn) | inactive: -12.7% | 
31 | CCc1ccc(/C=N/NC(=O)c2cc(-c3cccc([N+](=O)[O-])c3)n[nH]2)cc1 |  | active: 6.51 µM
32 | Cc1nc(N)sc1N=Nc1ccc(Br)cc1 |  | inconclusive [cytotoxic, single point]
33 | COc1ccc(NS(=O)(=O)c2ccc3oc(SC4CCOC4=O)nc3c2)cc1 (stereo not drawn) |  | inconclusive [cytotoxic, single point]
34 | Cc1ccc(C(=O)N/C(=C/c2ccc(-c3cccc([N+](=O)[O-])c3)o2)C(=O)NCCCN(C)C)cc1 |  | active: 14.6 µM
35 | OCCNc1nc(NCc2ccccc2)c2ccccc2n1 |  | inconclusive [cytotoxic, single point]
36 | O=C(CN1c2ccccc2Sc2ccccc21)NNC(=S)Nc1ccc(Cl)cc1Cl |  | inconclusive [cytotoxic, single point]
37 | O=C(CSc1cccs1)Nc1ccc(Cl)cc1 | inactive: -1.98% | 
38 | COc1ccc(/C=C2\CCCC3C2=NN(C(=O)CSc2n[nH]c(N)n2)C3c2ccc(OC)cc2)cc1 (stereo not drawn) |  | inconclusive [cytotoxic, single point]
39 | O=C(NCc1ccccc1)C(C1CC1)n1c(=O)c(-c2cc3ccccc3[nH]2)nc2ccccc21 (stereo not drawn) |  | inconclusive [cytotoxic, single point]
40 | CCOC(=O)[C@]12CCCC=C1N(CCC1=CCCCC1)C(=O)[C@H](CC(=O)NCc1cccc(C(F)(F)F)c1)C2 |  | inconclusive [cytotoxic, partial curve]
41 | CC[C@@H](C)[C@@H](CO)NC(=O)[C@H]1O[C@@H](n2cnc3c(N)ncnc32)[C@H](O)[C@@H]1O | inactive: 15.3% | 
42 | Cc1nc2ccc(S(=O)(=O)N3CCCCC3)cc2s1 | inactive: -7.37% | 
43 | Cc1cccc(OCC(=O)N2CCN(C(=O)COc3ccc(Cl)cc3)CC2)c1 | inactive: -4.19% | 
44 | O=C(Nc1ccon1)c1cc(-c2ccccc2)nc2ccccc12 | inactive: -0.223% | 
45 | Cc1cccc(N2CCN(C(=O)c3cccc(N4CCCC4=O)c3)C(C)C2)c1 (stereo not drawn) |  | active: 2.59 µM
46 | COc1ccc(CNC(=O)CN(Cc2ccc(Cl)cc2)S(=O)(=O)c2ccccc2)cc1 | inconclusive: -31.2% [cytotoxic] | 
47 | CCc1cccc2c(C(=O)Cn3nnc(-c4ccc(OC)c(OC)c4)n3)c[nH]c12 |  | inconclusive [cytotoxic, partial curve]
48 | Cc1cc(NC(=O)c2cccc(C(=O)Nc3cc(C)on3)n2)no1 | inactive: -25% | 
49 | Cc1ccc(C(=O)O)cc1N=Cc1cc(Br)cc(Br)c1O |  | inconclusive [cytotoxic, single point]
50 | Fc1ccccc1COc1ccc(Br)cc1CNCc1cccnc1 |  | inconclusive [cytotoxic, partial curve]

Row | SMILES | activity, negative = toxicity | Potency
51 | CCOC(=O)N1CCN(C(=O)c2ccc(CSc3ccc(Cl)cc3)cc2)CC1 |  | inconclusive [cytotoxic, partial curve]
52 | Cc1ccc(-n2c(Cc3cccn3C)nnc2SCC(=O)Nc2ccc3c(c2)OCO3)cc1 |  | inconclusive [cytotoxic, single point]
53 | CC(C)c1ccc2oc(-c3ccc(NC(=O)c4ncn[nH]4)cc3)nc2c1 |  | inconclusive [rising, single point]
54 | Cc1ccc(/C=c2\sc3n(c2=O)CN(c2cccc(Br)c2)CN=3)o1 | inactive: 4.98% | 
55 | CSc1c2c([nH]c(=O)c1C#N)-c1ccccc1CC2 |  | inconclusive [rising, single point]
56 | O=C1Nc2c(Br)cccc2C1=O | inactive: -6.26% | 
57 | Cc1cc2c(cc1C)N(C(=O)CSC1=NCCS1)C(C)(C)c1ssc(=S)c1-2 |  | inconclusive [cytotoxic, single point]
58 | N#C/C(=C(/O)c1ccco1)c1nc2ccccc2s1 |  | inconclusive [cytotoxic, single point]
59 | COc1cc(/C=C(\NC(C)=O)C(=O)NC(C)(C)C)ccc1OC(C)=O | inactive: -1.91% | 
60 | O=C(COc1ccccc1)n1nc(-c2ccc(Cl)cc2)nc1NCc1ccco1 |  | inconclusive [cytotoxic, single point]
61 | O=C(CNC(=O)c1ccco1)N/N=C/c1ccc(C(=O)O)cc1 | inactive: 8.81% | 
62 | N#C/C(=C\c1ccc(O)c(O)c1)C(=O)NCc1ccccc1 |  | inconclusive [cytotoxic, single point]
63 | CC(C)OCCCNC(=S)N1CCC(C(=O)c2ccc(Cl)cc2)CC1 | inconclusive: -30.2% [cytotoxic] | 
64 | CC(=O)Nc1ccc(NC(=O)c2cc(-c3cc(F)ccc3OCC3CCCO3)n[nH]2)cc1 (stereo not drawn) |  | inconclusive [rising, single point]
65 | Cc1cc(N(C)Cc2ccccc2)nc2cc(O)ccc12 |  | inconclusive [cytotoxic, partial curve]
66 | CCN(CC)CCN1C(=O)C2C(C(=O)Nc3ccc(C(C)C)cc3)C3C=CC2(O3)C1C(=O)NC1CCCCC1 (stereo not drawn) |  | inconclusive [cytotoxic, partial curve]
67 | COc1nc(N=C(N)N)nc2c(C)cccc12 |  | inconclusive [cytotoxic, partial curve]
68 | O=Cc1ccc(O)c2ncccc12 |  | active: 3.66 µM
69 | CSc1ccccc1C(=O)N1CCN(c2cccc(Cl)c2)CC1 |  | active: 23.1 µM
70 | CC(C)C(=O)N1CCCC1(C)C(=O)NCc1ccc(Cl)cc1 (stereo not drawn) |  | inconclusive [rising, single point]
71 | COc1ccc2c(c1)CCCN2C(N)=Nc1ccc(Cl)cc1 |  | inconclusive [cytotoxic, single point]
72 | Cc1ccc2oc(-c3cccc(NC(=S)NC(=O)/C=C/c4ccco4)c3)nc2c1 |  | inconclusive [cytotoxic, single point]
73 | O=C(C1=C[C@@H](c2ccccc2)C[C@@H](OCc2ccc(CO)cc2)O1)N1CCCCCCC1 | inactive: -1.55% | 
